# From publication PMC9911399, “Two distinct binding modes provide the RNA-binding protein RbFox with extraordinary sequence specificity”
# Substitutions are numbered along the chain they refer to; changes in the protein carry UniProt numbers. Some of the results follow.
# T1: RBFOX1 RRM RbFoxmut (Fox-RRM*) (Homo sapiens, UniProt Q9NWB1 109-208, R118D;E147R;N151S;E152T)
# T1 sequence: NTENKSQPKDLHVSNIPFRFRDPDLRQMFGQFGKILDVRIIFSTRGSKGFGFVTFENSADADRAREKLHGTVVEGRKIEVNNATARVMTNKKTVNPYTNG
# B1: UGGCAAU (DNA:RNA)
# RNA: GGGAGACCGGAAUUCAGAUUGUCCUGGCAAUUUAAAUCCCGUCGUAGCCACCA
# DNA 1: CAATCTGAATTCCGGTCTCCC
# DNA 2: TGGTGGCTACGACGGGATT
# B2: AGUCCAC (DNA:RNA)
# RNA: B1 RNA with U25A, G27U, A29C, U31C
# DNA 1: CAATCTGAATTCCGGTCTCCC
# DNA 2: TGGTGGCTACGACGGGATT
# B3: CGAGAGA (DNA:RNA)
# RNA: B1 RNA with U25C, G27A, C28G, A30G, U31A
# DNA 1: CAATCTGAATTCCGGTCTCCC
# DNA 2: TGGTGGCTACGACGGGATT
# B4: GGAAGUC (DNA:RNA)
# RNA: B1 RNA with U25G, G27A, C28A, A29G, A30U, U31C
# DNA 1: CAATCTGAATTCCGGTCTCCC
# DNA 2: TGGTGGCTACGACGGGATT
# B5: UUUAACU (DNA:RNA)
# RNA: B1 RNA with G26U, G27U, C28A, A30C
# DNA 1: CAATCTGAATTCCGGTCTCCC
# DNA 2: TGGTGGCTACGACGGGATT
# B6: UAACAUU (DNA:RNA)
# RNA: B1 RNA with G26A, G27A, A30U
# DNA 1: CAATCTGAATTCCGGTCTCCC
# DNA 2: TGGTGGCTACGACGGGATT
# B7: CUCAAAG (DNA:RNA)
# RNA: B1 RNA with U25C, G26U, G27C, C28A, U31G
# DNA 1: CAATCTGAATTCCGGTCTCCC
# DNA 2: TGGTGGCTACGACGGGATT
# B8: ACUCAUA (DNA:RNA)
# RNA: B1 RNA with U25A, G26C, G27U, A30U, U31A
# DNA 1: CAATCTGAATTCCGGTCTCCC
# DNA 2: TGGTGGCTACGACGGGATT
# B9: GAGAAGG (DNA:RNA)
# RNA: B1 RNA with U25G, G26A, C28A, A30G, U31G
# DNA 1: CAATCTGAATTCCGGTCTCCC
# DNA 2: TGGTGGCTACGACGGGATT
# B10: GCACGCC (DNA:RNA)
# RNA: B1 RNA with U25G, G26C, G27A, A29G, A30C, U31C
# DNA 1: CAATCTGAATTCCGGTCTCCC
# DNA 2: TGGTGGCTACGACGGGATT
# B11: UGCGGAU (DNA:RNA)
# RNA: B1 RNA with G27C, C28G, A29G
# DNA 1: CAATCTGAATTCCGGTCTCCC
# DNA 2: TGGTGGCTACGACGGGATT
# B12: GGGAUCA (DNA:RNA)
# RNA: B1 RNA with U25G, C28A, A29U, A30C, U31A
# DNA 1: CAATCTGAATTCCGGTCTCCC
# DNA 2: TGGTGGCTACGACGGGATT
# B13: GGAUAUU (DNA:RNA)
# RNA: B1 RNA with U25G, G27A, C28U, A30U
# DNA 1: CAATCTGAATTCCGGTCTCCC
# DNA 2: TGGTGGCTACGACGGGATT
# B14: GAGGGCC (DNA:RNA)
# RNA: B1 RNA with U25G, G26A, C28G, A29G, A30C, U31C
# DNA 1: CAATCTGAATTCCGGTCTCCC
# DNA 2: TGGTGGCTACGACGGGATT
# B15: ACAGGGG (DNA:RNA)
# RNA: GGGAGACCGGAAUUCAGAUUGUCCACAGGGGUUAAAUCCCGUCGUAGCCACCA
# DNA 1: CAATCTGAATTCCGGTCTCCC
# DNA 2: TGGTGGCTACGACGGGATT
# B16: UGUAACU (DNA:RNA)
# RNA: B1 RNA with G27U, C28A, A30C
# DNA 1: CAATCTGAATTCCGGTCTCCC
# DNA 2: TGGTGGCTACGACGGGATT
# B17: UCCUCGG (DNA:RNA)
# RNA: B15 RNA with A25U, A27C, G28U, G29C
# DNA 1: CAATCTGAATTCCGGTCTCCC
# DNA 2: TGGTGGCTACGACGGGATT
# B18: GAGUCCA (DNA:RNA)
# RNA: B1 RNA with U25G, G26A, C28U, A29C, A30C, U31A
# DNA 1: CAATCTGAATTCCGGTCTCCC
# DNA 2: TGGTGGCTACGACGGGATT
# B19: CUCAGCC (DNA:RNA)
# RNA: B15 RNA with A25C, C26U, A27C, G28A, G30C, G31C
# DNA 1: CAATCTGAATTCCGGTCTCCC
# DNA 2: TGGTGGCTACGACGGGATT
# B20: AAGGCAG (DNA:RNA)
# RNA: B15 RNA with C26A, A27G, G29C, G30A
# DNA 1: CAATCTGAATTCCGGTCTCCC
# DNA 2: TGGTGGCTACGACGGGATT
# Biological target: T1, RBFOX1 RRM RbFoxmut (Fox-RRM*)
# Assay: EMSA; HiTS-Eq, 1 nM pool, 10 min; buffer printed only for the single-RNA assays: 10 mM Tris pH 7.5, 150 mM NaCl, 3.4 mM EDTA, 0.001% NP-40, 30 C
# Settings: tags: His6 N-terminal (pET28a); label: 5' 32P
# Method in brief: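 Purified RbFox RRM, wild type or mutant, was incubated for 10 min in 50 µL with 1 nM of a 5′-radiolabelled RNA pool carrying 7 randomized nucleotides, whose flanks were annealed to DNA oligonucleotides, over a series of increasing protein concentrations. Unbound RNA was resolved on 8% native PAGE, cut out, reverse-transcribed, barcoded by PCR and sequenced on an Illumina HiSeq 2500. Relative association constants were derived from changes in read counts for each RNA species versus the control reaction and normalised to the cognate motif.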
row,Binder,binding signal
1,B1,0.0495 KA relative to UGCAUGU
2,B2,0.1 KA relative to UGCAUGU
3,B3,0.1 KA relative to UGCAUGU
4,B4,0.111 KA relative to UGCAUGU
5,B5,0.0936 KA relative to UGCAUGU
6,B6,0.0675 KA relative to UGCAUGU
7,B7,0.129 KA relative to UGCAUGU
8,B8,0.131 KA relative to UGCAUGU
9,B9,0.0608 KA relative to UGCAUGU
10,B10,0.115 KA relative to UGCAUGU
11,B11,0.112 KA relative to UGCAUGU
12,B12,0.232 KA relative to UGCAUGU
13,B13,0.105 KA relative to UGCAUGU
14,B14,0.163 KA relative to UGCAUGU
15,B15,0.106 KA relative to UGCAUGU
16,B16,0.091 KA relative to UGCAUGU
17,B17,0.0845 KA relative to UGCAUGU
18,B18,0.0877 KA relative to UGCAUGU
19,B19,0.0759 KA relative to UGCAUGU
20,B20,0.0853 KA relative to UGCAUGU
